From article PMC4336329 (PLoS ONE, 2015)
The campaign covered roughly 310,000 compounds. About 2,200 (0.71%) showed an effect of 50% or more. The effect is printed as a negative number. The list shows a part of the results.

molecular target: human ether-à-go-go-related gene (hERG) potassium channel (human, UniProt Q12809); experiment: primary screen, population patch clamp on CHO cells stably expressing hERG
Sequence (Q12809 whole entry, looked up): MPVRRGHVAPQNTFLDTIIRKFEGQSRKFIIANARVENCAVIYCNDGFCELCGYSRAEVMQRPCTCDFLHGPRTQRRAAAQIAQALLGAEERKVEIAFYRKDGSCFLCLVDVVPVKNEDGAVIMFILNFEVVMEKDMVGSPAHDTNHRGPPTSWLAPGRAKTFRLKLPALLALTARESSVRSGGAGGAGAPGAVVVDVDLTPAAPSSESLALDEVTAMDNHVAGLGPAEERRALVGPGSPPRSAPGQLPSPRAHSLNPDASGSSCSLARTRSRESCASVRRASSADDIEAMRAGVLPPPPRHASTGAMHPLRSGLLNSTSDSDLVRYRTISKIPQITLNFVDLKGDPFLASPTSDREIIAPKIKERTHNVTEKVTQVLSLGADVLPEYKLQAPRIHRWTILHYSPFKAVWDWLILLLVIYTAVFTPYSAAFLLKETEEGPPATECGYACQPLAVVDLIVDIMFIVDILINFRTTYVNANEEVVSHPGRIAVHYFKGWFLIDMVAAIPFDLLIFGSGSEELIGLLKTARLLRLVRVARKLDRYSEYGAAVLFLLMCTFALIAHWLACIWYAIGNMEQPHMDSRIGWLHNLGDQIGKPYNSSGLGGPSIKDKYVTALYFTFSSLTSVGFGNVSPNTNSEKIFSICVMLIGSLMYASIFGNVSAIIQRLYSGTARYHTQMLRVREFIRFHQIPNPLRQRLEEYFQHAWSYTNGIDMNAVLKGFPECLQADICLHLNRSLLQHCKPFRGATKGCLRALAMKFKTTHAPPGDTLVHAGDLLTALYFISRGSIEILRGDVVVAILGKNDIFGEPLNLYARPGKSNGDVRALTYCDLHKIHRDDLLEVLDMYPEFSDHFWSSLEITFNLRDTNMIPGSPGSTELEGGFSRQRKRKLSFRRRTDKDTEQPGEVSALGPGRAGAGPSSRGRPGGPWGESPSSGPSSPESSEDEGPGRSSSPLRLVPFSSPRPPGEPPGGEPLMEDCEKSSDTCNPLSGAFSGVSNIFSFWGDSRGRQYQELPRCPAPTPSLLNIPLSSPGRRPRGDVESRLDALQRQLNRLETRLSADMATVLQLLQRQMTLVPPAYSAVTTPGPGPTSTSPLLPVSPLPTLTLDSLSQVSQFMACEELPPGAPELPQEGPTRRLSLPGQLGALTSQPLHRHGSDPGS

Row | Structure (SMILES) | hERG current change (%, negative = inhibition) at 1uM [%]
1 | COc1ccc(/C=N/NC(=O)c2cc(C)on2)c2ccccc12 | 6.71
2 | O=C(CN1CCN(C(=O)c2ccco2)CC1)Nc1ccc(Cl)c(S(=O)(=O)N2CCOCC2)c1 | 2.19
3 | CC(C)COc1cccc(C(=O)N2CCN(C(=O)c3ccco3)CC2)c1 | -1.93
4 | Cc1ccc(CNC(=O)NC23CC4CC(CC(C4)C2)C3)cc1 | 12.4
5 | CCNc1nc(SCC(=O)OC)nc(N(C)C)n1 | -1.18
6 | Cc1ccc(S(=O)(=O)Nc2ccc3c(c2)nc(CCN2CCOCC2)n3C)cc1 | 6.29
7 | Cc1cc(C)c(S(=O)(=O)NCC(c2cccnc2)N2CCN(Cc3ccccc3)CC2)c(C)c1 (centres unmarked) | -42.6
8 | CCCCn1c(N)c(N(CCOC)C(=O)c2cc(-c3ccccc3)nc3ccccc23)c(=O)[nH]c1=O | -14.9
9 | COc1ccc(C(=O)COC(=O)Cn2nnc3ccccc32)cc1Br | 9.53
10 | C/C(=N/OC(=O)C1CC1)c1cc(-c2ccc(Cl)cc2)no1 | -5.72
11 | CC(=O)c1ccc(N2CCN(C(=O)c3ccc(Cn4c(=S)[nH]c5ccc(N6CCOCC6)cc5c4=O)cc3)CC2)cc1 | 3.21
12 | CN(C)/C=N/c1nc2nccc(-c3cccnc3)n2n1 | 4.7
13 | NS(=O)(=O)c1ccc(CCNC(=O)CNC(=O)COc2ccccc2)cc1 | 13.8
14 | CN1CCN(S(=O)(=O)c2cccc(C(=O)Oc3cccc(Br)c3)c2)CC1 | 10.1
15 | COc1ccc(C2CC(=O)CC(=O)C2n2cncn2)cc1 (centres unmarked) | 7.43
16 | COc1cc(CN(C)CCc2ccccc2)ccc1OCc1ccccc1 | -12.2
17 | C#CCSc1nnc(-c2sc(-c3ccccc3)nc2C)n1C | 0.883
18 | CCOc1ccccc1Nc1nc2ccccc2n2cnnc12 | 13
19 | COc1cc2c(c(OC)c1OC)CC(=O)N(C)CC2 | 6.98
20 | O=C(CN1C(=O)CSc2ccccc21)N1CCc2ccccc21 | 9.93
21 | CCOc1ccc(-c2nnn(CCC(=O)O)n2)cc1OC | 10.8
22 | CCOC(=O)/C(Sc1nc(-c2ccccc2)cc(-c2ccccc2)c1C#N)=C(\C)O | 14.2

Row | Structure (SMILES) | hERG current change (%, negative = inhibition) at 1uM [%]
23 | Cc1cccc(-n2nc(C)c3c(C(=O)O)cc(-c4cccs4)nc32)c1 | 4.29
24 | Cc1ccc(OC(=O)c2cncc(Br)c2)c(C)c1 | 14.2
25 | CC(=O)NC1C(Oc2ccccc2C)OC2COC(c3ccco3)OC2C1O (centres unmarked) | 13
26 | CCOC(=O)[C@@H]1[C@H]2COc3ccccc3[C@@H]2N2C(=O)N(c3cccc(Cl)c3)C(=O)[C@@]12C | 6.04
27 | COc1ccc(N2CCN(C(=O)Cn3nnc(-c4cccs4)n3)CC2)cc1 | 17.3
28 | C[C@@H](C(=O)N1CCN(C(=O)OC(C)(C)C)CC1)n1cc(CCC(=O)O)nn1 | 16.5
29 | O=C(Cc1ccccc1)NCCSCc1ccc(Cl)cc1 | 2
30 | COc1ccc(Cc2nnc(NC(=O)c3ccc(OC(C)=O)cc3)s2)cc1OC | 14.2
31 | O=C(O)Cn1cc(F)c(=O)[nH]c1=O | 6.96
32 | N#C/C(=C\c1ccc[nH]1)C(=O)NC1CC1 | 8.93
33 | COCCN(C(=O)CSc1nnc(-c2ccc(C)cc2)n1N)c1c(N)n(Cc2ccccc2)c(=O)[nH]c1=O | 20.8
34 | CCc1nc(N2CCCC2)c(C#N)c2c1CCCC2 | 10.1
35 | N/C(=N\OC(=O)COc1ccccc1)c1ccccn1 | 10.1
36 | O=C(Cn1ccc2ccccc2c1=O)NCC(=O)N1CCC2(CC1)OCCO2 | 14.7
37 | O=C(C#Cc1cccc([N+](=O)[O-])c1)c1ccccc1 | 17.6
38 | COC(=O)c1sccc1NC(=O)C1CCCCC1C(=O)O (centres unmarked) | 13.9
39 | Cc1ccc(NC(=O)Cn2ccc([N+](=O)[O-])n2)cc1Cl | 1.29
40 | N/C(=N\OC(=O)CC1CCCCC1)c1ccccn1 | 6.05
41 | COc1ccc(C(F)(F)F)cc1N/C=C\c1nnnn1-c1ccc(C)cc1 | -2.43
42 | C(=N\n1cnnc1)/c1ccc2c(c1)OCCO2 | 7.76
43 | O=C(CSc1cc(Cl)ccc1Cl)NCC(=O)Nc1ccc(F)c(F)c1F | 7.46
44 | Cc1cc(SC2CCOC2=O)nc2ccccc12 (centres unmarked) | 10.8
